Data from the supplement of paper PMC7125110.
± gives the standard error. Variants at the background level are over-represented here.

B1: glmS ribozyme (parent)
chain: AUAAAAGCGCCAGAACUACAGAAAUGUAGUUGACGAGGAGGAGGUUUAUCGAAUUUUCGGCGGAUGCCUCCAAA

Variants of: B1
Assay: self-cleavage kobs at 2500 uM GlcN6P; higher = faster cleavage; RNA array
Conditions: with glucosamine-6-phosphate
How it was run: (§1)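 Over ~14 h at 37 °C, tiles were imaged as glucosamine-6-phosphate (40 μM to 10 mM) in HEPES/KCl/Mg(OAc)2 buffer flowed across sequenced MiSeq chips. The chips carried barcoded ribozyme variants transcribed in situ by E. coli RNA polymerase and tracked with a hybridised Cy3 probe. After normalisation to baseline and to non-cleaving reference variants, one- or two-exponential decay fits of per-tile medians gave kobs. kcat and KM followed from weighted Michaelis–Menten fits across concentrations.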

Row | Variant | self-cleavage kobs at 2500 uM GlcN6P [s⁻¹]
1 | C10A A64C C67G | 8.61e-05 ± 3.1e-05
2 | C10A C11A A39C | < 1e-05
3 | C10A C11G G51A | < 1e-05
4 | C10A C11G U30A C34G C70A | < 1e-05
5 | C10A C70U | 2.56e-05 ± 1.3e-05
6 | C10A G29C A42U A52U | < 1e-05
7 | C10A G32C A33U C71A | < 1e-05
8 | C10A G35A G60U C71A | < 1e-05
9 | C10A G35A U47C U65A | < 1e-05
10 | C10A G40U U56A U65C | < 1e-05
11 | C10A G51C G63U | < 1e-05
12 | C10A U31C G38U | < 1e-05
13 | C10A U54C G59U C67U | < 1e-05
14 | C10G A12G U47G U54C C68U | < 1e-05
15 | C10G A33U G51U C67G | < 1e-05
16 | C10G A36U G40U A53U C68U | < 1e-05
17 | C10G A39G G51A | < 1e-05
18 | C10G C11A A14G U30G | < 1e-05
19 | C10G C16A A39C A52U | < 1e-05
20 | C10G C34A A52U | < 1e-05
21 | C10G C61U A64U U65G | < 1e-05
22 | C10G G35U G38A | < 1e-05
23 | C10G G38U U55A | < 1e-05

Row | Variant | self-cleavage kobs at 2500 uM GlcN6P [s⁻¹]
24 | C10G G40C G59U | < 1e-05
25 | C10G G44U C50G | < 1e-05
26 | C10G G44U C50G C67A U69G | < 1e-05
27 | C10G U30G A42U A52U U54G | < 1e-05
28 | C10G U46A G51C | < 1e-05
29 | C10G U47G G51A | < 1e-05
30 | C10U A12U A53U | 4.13e-05 ± 1.7e-05
31 | C10U A12U G63C C70A C71A | 5.29e-05 ± 1.7e-05
32 | C10U A14C C34A | < 1e-05
33 | C10U A15C G60U C67U | < 1e-05
34 | C10U A15G G44U C50G | < 1e-05
35 | C10U A15G U31A G32U U65G | < 1e-05
36 | C10U A33U A53C | < 1e-05
37 | C10U A36U G51C A53C | < 1e-05
38 | C10U A39G C58A | < 1e-05
39 | C10U C16A A39C U57A | < 1e-05
40 | C10U C16A A48U U65C | < 1e-05
41 | C10U C16U A33C G41A G62C | < 1e-05
42 | C10U G13C U31A G51U G63U G66U | < 1e-05
43 | C10U G13U A52U U55A C68U | < 1e-05
44 | C10U G29C C61U | < 1e-05
45 | C10U G29U C61A C67G | 0.000121 ± 2.9e-05
46 | C10U G29U G38A | 0.00158 ± 0.0007

Row | Variant | self-cleavage kobs at 2500 uM GlcN6P [s⁻¹]
47 | C10U G32C U46C C71G | < 1e-05
48 | C10U G32U G35C U47G U49G G60U | < 1e-05
49 | C10U G38C G40U | < 1e-05
50 | C10U G40U U47A G51U C61U | < 1e-05
51 | C10U G43U A64G | < 1e-05
52 | C10U G44A U45C C68G | < 1e-05
53 | C10U G44U G66A | < 1e-05
54 | C10U U30A G43C U46A U54C C67A | < 1e-05
55 | C10U U31A A39U G51C | < 1e-05
56 | C10U U31G U49A G62U | < 1e-05
57 | C11A A36G A42G A52G G59U C61U C67G | < 1e-05
58 | C11A C34A A42C C70A | < 1e-05
59 | C11A G13A A36C U49A G62U | < 1e-05
60 | C11A G13A G29U G32A G35A C67U C68G | < 1e-05
61 | C11A G13U A14C G37C C71U | < 1e-05
62 | C11A G35C G44U G63A U65G | < 1e-05
63 | C11A G37C U55A U65C | < 1e-05
64 | C11A G44U A52U C68U | < 1e-05
65 | C11A U31A A33G | < 1e-05
66 | C11A U31C G40C A53C | < 1e-05
67 | C11G A12C A42C G66U U69C | < 1e-05
68 | C11G A12G G38A A42G G51U | < 1e-05
69 | C11G A15G U46A | < 1e-05

Row | Variant | self-cleavage kobs at 2500 uM GlcN6P [s⁻¹]
70 | C11G A15U A42U U46C | < 1e-05
71 | C11G A36G G38U U69C | < 1e-05
72 | C11G A42U A52U C58G C70G | < 1e-05
73 | C11G A48G G66C | < 1e-05
74 | C11G C16A G38A G60A | < 1e-05
75 | C11G C16A U30C U31C U69A | < 1e-05
76 | C11G C50G C58A | 0.00031 ± 0.00011
77 | C11G C61A C68A | 8.83e-05 ± 2.3e-05
78 | C11G C61A G62C | < 1e-05
79 | C11G G32A U56G | < 1e-05
80 | C11G G35A U55C | < 1e-05
81 | C11G G35C U69C | < 1e-05
82 | C11G G43U C58A | < 1e-05
83 | C11G G51C A64C | < 1e-05
84 | C11G U30G A48C U55A | < 1e-05
85 | C11G U46A G51A | < 1e-05
86 | C11U A39C G43U G62A | < 1e-05
87 | C11U C34A G44A | < 1e-05
88 | C11U C34U G41A G66A C67U | < 1e-05
89 | C11U G13C U46G A64U | < 1e-05
90 | C11U G13U | 4.88e-05 ± 9.5e-06
91 | C11U G29U C67G | 0.000197 ± 6.6e-05
92 | C11U G35A C70A | < 1e-05

Row | Variant | self-cleavage kobs at 2500 uM GlcN6P [s⁻¹]
93 | C11U G35A G37U A64C | < 1e-05
94 | C11U G40C G44A G51A C61G C71A | < 1e-05
95 | C11U G60A G62U C67G | < 1e-05
96 | C11U G60C C61G | < 1e-05
97 | C11U U30C A52G G59C | < 1e-05
98 | C11U U31G G38C G44U A52C G62A | < 1e-05
99 | C11U U45A A53U U57G | < 1e-05
100 | C11U U45A A64C | < 1e-05
101 | C11U U46G A52U G66A | < 1e-05
102 | C11U U49A A53U U57C G59A | < 1e-05
103 | C11U U54C C61G | < 1e-05
104 | A12C A15G G29C A52G | < 1e-05
105 | A12C A15G G43C | < 1e-05
106 | A12C A15U G43C G51A | < 1e-05
107 | A12C A48C G66A C68G | < 1e-05
108 | A12C A48G C58G | 4.08e-05 ± 1.8e-05
109 | A12C C34U A52G C68A | < 1e-05
110 | A12C C34U U57C | < 1e-05
111 | A12C G13U U49A A52U U57A | < 1e-05
112 | A12C G37C | 2.27e-05 ± 8.6e-06
113 | A12C G43U | 3.6e-05 ± 8e-06
114 | A12C G66U C70A | 0.000107 ± 2.6e-05
115 | A12G A14C U30C C70G | < 1e-05

Row | Variant | self-cleavage kobs at 2500 uM GlcN6P [s⁻¹]
116 | A12G A33U A39G U65G | < 1e-05
117 | A12G A42C A48C C50G C71G | < 1e-05
118 | A12G A42U A48G | < 1e-05
119 | A12G A52G G60C U65G | < 1e-05
120 | A12G A53G G63C | < 1e-05
121 | A12G C16A U30G G38A U46C | < 1e-05
122 | A12G C34U A52U | < 1e-05
123 | A12G C34U U45G | < 1e-05
124 | A12G G29U U47G | 6.74e-05 ± 1.5e-05
125 | A12G G35U A39C G60A C68U | < 1e-05
126 | A12G G37C A64G | < 1e-05
127 | A12G G37C G43A C70G | < 1e-05
128 | A12G G37C U56A G60A C61U G62U | < 1e-05
129 | A12G G43C U45A C50U C67A | < 1e-05
130 | A12G G44U G51C C70A | < 1e-05
131 | A12G G59U C68U | < 1e-05
132 | A12G G63U U65A | < 1e-05
133 | A12G U31A U45A | 0.000216 ± 6.4e-05
134 | A12G U45A C70G | 0.000143 ± 3.9e-05
135 | A12U A15C G41C C61U G66A | < 1e-05
136 | A12U A33G G38U G44U G59A | < 1e-05
137 | A12U A33U G40U | 3.71e-05 ± 1.4e-05
138 | A12U A36C G40U U46A C61G | < 1e-05

Row | Variant | self-cleavage kobs at 2500 uM GlcN6P [s⁻¹]
139 | A12U A36C G62U | < 1e-05
140 | A12U A48U C70G | 0.000115 ± 5e-05
141 | A12U C16U C70A | 0.000361 ± 0.00013
142 | A12U C34A U57C | < 1e-05
143 | A12U C34U G38A C50G | 0.000122 ± 3e-05
144 | A12U G13A G38U | < 1e-05
145 | A12U G13C U56G C67U | < 1e-05
146 | A12U G29U G59U C71U | < 1e-05
147 | A12U G32C A39U | < 1e-05
148 | A12U G32U G62U | < 1e-05
149 | A12U G35U A42C U46A C68A | < 1e-05
150 | A12U G35U G40U A48C C58G | < 1e-05
151 | A12U G41C C61U | < 1e-05
152 | A12U G51C U55C | < 1e-05
153 | A12U U31G C58G | 7.42e-05 ± 2.7e-05
154 | G13A A14C C68G C70A | < 1e-05
155 | G13A A39C A42G C70U | < 1e-05
156 | G13A A39C U45C U55C U56A U57C G63C | < 1e-05
157 | G13A A39U A42C A64U | < 1e-05
158 | G13A C34U G44C C58A C68A | < 1e-05
159 | G13A G35C A36U C71G | < 1e-05
160 | G13A G35U A64C | < 1e-05

Variants of: B1
Assay: self-cleavage kobs at 10000 uM GlcN6P; higher = faster cleavage; RNA array
Conditions: with glucosamine-6-phosphate
How it was run: as §1

Row | Variant | self-cleavage kobs at 10000 uM GlcN6P [s⁻¹]
161 | C10G C34A A52U | < 1e-05
162 | C10G G35U G38A | < 1e-05
163 | C10U G44A U45C C68G | < 1e-05
164 | C10U G44U G66A | < 1e-05
165 | C11G A15G U46A | < 1e-05
166 | C11U C34U G41A G66A C67U | < 1e-05
167 | C11U G13C U46G A64U | < 1e-05
168 | C11U G13U | 5.47e-05 ± 8.2e-06
169 | A12C A15G G43C | < 1e-05
170 | A12C G37C | 5.03e-05 ± 7.5e-06
171 | A12C G43U | 4.74e-05 ± 9.2e-06
172 | A12G A42C A48C C50G C71G | < 1e-05
173 | A12U C34A U57C | < 1e-05
174 | G13A G35C A36U C71G | < 1e-05
